In PubChem BioAssay AID493208 (National Center for Advancing Translational Sciences (NCATS), 2011):
Hit rate of the full screen: of about 44,000 compounds, about 340 (0.77%) were called active. Another 5% or so got no clear call; they are omitted. The call rests on the fitted dose curve; in most records, active means well fitted inhibition curve with a large enough effect; inconclusive means small, poorly fitted or top-dose-only effect; inactive means flat fitted curve, though single readings scatter. The list shows a part of the results.

Assay: Acumen qHTS Assay for Inhibitors of the mTORC1 Signaling Pathway in MEF (Tsc2-/-, p53-/-) Cells: Sytravon;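 further: plate controls were DMSO for no effect and rapamycin for full effect; nearly all actives have a fitted effect of over 50% in size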
Settings: phospho-rpS6 immunofluorescence/PI, 24 h; series mostly up to 38.3 µM; activity change, negative = inhibition: at the top concentration
Method in brief: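 Compounds act on Tsc2-/-, p53-/- fibroblasts carrying an empty vector for 24 h before fixation and dual staining for phospho-S6 and DNA (propidium iodide). Values are percentages of cells above a rapamycin-defined pS6/PI threshold.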

Activity change, negative = inhibition, inactive:
CCc1ccc(CNC(=O)CCc2c(C)nn(-c3ccc(N4CCCCC4)nn3)c2C)cc1 -2.28%
O=C(NCC(c1ccc2c(c1)OCO2)N1CCOCC1)c1ccccc1F (stereo not given) -1.69%
CC(CNC(=O)Cn1ccc2cc(S(=O)(=O)N3CCCCC3)ccc21)c1ccccc1 (stereo not given) -18.8%
Cc1cc2nn(-c3ccc(F)cc3)nc2cc1NC(=O)c1ccc(OC(C)C)cc1 3.16%
CCOc1ccc(CCNC(=O)C2CCN(C(=O)N3CC(CC)Oc4ccc(C)cc43)CC2)cc1 (stereo not given) 0.597%
Cc1ccc2nc(Cl)c3cc(C(=O)N(C)C4CCCCC4)sc3c2c1 -7.09%
COc1cccc(Cn2c(=O)n(-c3cccc(Cl)c3C)c(=O)c3c4c(sc32)CN(C(C)=O)CC4)c1 -3.32%
Cc1ccc(NC(=O)CSc2nc3ccc(NC(=O)c4cccs4)cc3s2)c(C)c1 0.0346%
CCOC(=O)c1c(C)oc2nc(C)nc(NCC3CCN(Cc4cccc(C)c4)CC3)c12 1.1%
CC1=C(c2ccc(C)c(C)c2)S(=O)(=O)N=C1N1CCN(c2cccc(C(F)(F)F)c2)CC1 -10.2%
CCOc1ccc(-n2c(=O)c3c4c(sc3n(Cc3cccc(Cl)c3)c2=O)CCCC4)cc1 -12.1%
Cc1ccc(NC(=O)Cn2c(=O)n(-c3ccc(CC(=O)NCC4CCCO4)cc3)c(=O)c3ccccc32)cc1 (stereo not given) 2.28%
O=C(NCC(c1ccc2c(c1)OCO2)N1CCOCC1)c1ccc(F)cc1 (stereo not given) -10.3%
Cc1ccc(/C=C(\C#N)c2nc(-c3cc4c(ccc5ccccc54)oc3=O)cs2)cc1 3.06%
CCCC(=O)N(c1ccc2oc(-c3ccccc3)c(C(=O)OCC)c2c1)S(=O)(=O)c1ccc(C)cc1 4.93%
COCCCNC(=O)Cn1c(=O)n(CCCC(=O)NCc2ccc(C)cc2)c(=O)c2ccccc21 6.16%
CCCCN1CC(c2nc3ccccc3n2CCCCOc2c(C)cccc2C)CC1=O (stereo not given) 4.23%
CCOc1ccc(Sc2cc(C(=O)NCCc3ccc(OC)c(OC)c3)c3ccccc3n2)cc1 6.77%
CCn1cc(C(=O)N2CCN(c3ccccc3OC)CC2)c(=O)c2cc(S(=O)(=O)N3CCCCC3)ccc21 0.224%
COc1ccc(-c2nn(-c3ccccc3)cc2C(=O)Nc2ccccc2OC)cc1 -3.46%
Cc1cccc(C(=O)Nc2ccccc2-c2nc(-c3ccccc3)no2)c1 -9.25%
CC(C)CN(c1ccccc1)S(=O)(=O)c1nnc(NC(=O)c2ccco2)s1 -3.33%
Cn1cc(C(=O)NCc2ccc(F)cc2)c(=O)c2cc(S(=O)(=O)N3CCCCC3)ccc21 0.505%
O=C(CCSCc1ccccc1F)N1CCN(c2ccc(F)cc2)CC1 9.55%
COc1ccc(NC(=O)N2CCc3c(sc4c3CCCC4)C2c2ccc(F)cc2)cc1 (stereo not given) 19.9%
COc1cc(OC)c(NC(=O)c2oc3ccc4c(c3c2C)C(=O)CC(C)(C)O4)cc1Cl 0.203%
CCOc1ccccc1NC(=O)Cn1c(=O)n(Cc2ccc(C(=O)NCCCOC)cc2)c(=O)c2ccccc21 -16.6%
CCn1c(=O)c2cc(C(=O)N(C)c3cc(C)ccc3C)sc2c2ccccc21 2.86%
O=C(O)c1cccc(NC(=O)c2cccc(S(=O)(=O)Nc3cccc(C(=O)O)c3)c2)c1 1.23%
CC(C)c1ccc(Nc2nc3ccc(C(=O)c4ccccc4)cc3n3cnnc23)cc1 -2.53%
CCN(C(=O)c1sc2nc3n(c(=O)c2c1C)CCCCC3)c1ccccc1F 6.37%
CCc1ccc(CNC(=O)c2cc3c(=O)oc4ccc(C)cc4c3s2)cc1 -6.07%
Cc1ccc(NC(=O)Nc2nnc(N3CCCCC3)s2)c(C)c1 -14.3%
COc1ccc(NC(=O)c2ccc3snnc3c2)cc1OC -0.392%
COc1cc(OC)cc(-n2c(=O)[nH]c3cc(C(=O)NCCc4ccc(C)cc4)ccc3c2=O)c1 -11.9%
CN(C)C(=O)c1ccc(S(=O)(=O)NCc2ccccc2Cl)s1 0%
COc1ccc(-n2cc3c(c2-c2cccc(Br)c2)c(=O)n(C)c(=O)n3C)cc1OC -9.93%
COc1cccc(NC(=O)Cn2c(=O)n(Cc3ccccc3)c(=O)c3c4c(sc32)CN(C(C)=O)CC4)c1 -2.87%
COc1ccc(-c2cc(C(F)(F)F)nc(SCC(=O)NCc3ccc(F)cc3)n2)cc1 -2.43%
CCCCc1ccc(NC(=O)Cn2cnc3c2c(=O)n(C)c(=O)n3C)cc1 10.6%
COC(=O)c1ccccc1NC(=O)c1nc(SCc2ccccc2C)ncc1Cl -7.76%
Cc1c(CNCCCc2ccccc2)c(C(=O)O)c(C)n1Cc1ccc(Cl)cc1 5%
O=c1c2oc3ccccc3c2n(Cc2ccccc2F)c(=O)n1Cc1ccco1 3.1%
Cc1ccc(Cn2cc(CCC(=O)NC3CCCCC3)c3ccccc32)cc1 -10.4%
COc1ccc(S(=O)(=O)NC2(C(F)(F)F)NC(=O)N(CCc3ccccc3)C2=O)cc1 (stereo not given) -5.73%
CCCCCSc1nnc2c(n1)OC(c1ccc(C)s1)N(C(C)=O)c1ccccc1-2 (stereo not given) 4.21%
Cc1cccc(N2CCN(C(=O)Nc3ccc(F)cc3)CC2C)c1 (stereo not given) -6.8%
Cc1ccccc1NC(=O)Nc1nnc(N(C)Cc2ccccc2)s1 -3.16%
Cc1c(Cl)cccc1N1CC(c2nc3ccccc3n2Cc2ccccc2F)CC1=O (stereo not given) -16.7%
Oc1ccccc1-c1nc(/C=C/c2ccc(F)cc2)no1 7.06%
COc1ccccc1NC(=O)CN1C(=O)C(c2ccc(F)cc2)=NC1(C)C -0.396%
Cc1cccc(NC(=O)Cn2c(=O)n(Cc3ccc4c(c3)OCO4)c(=O)c3ccccc32)c1 4.09%
CCS(=O)(=O)c1c(Nc2ccc(F)c(Cl)c2)sc(C(=O)c2ccccc2)c1N 1.38%
CCOc1ccc(-c2ccc(NS(=O)(=O)c3cc(C)ccc3OC)cc2)nn1 0.101%
Cc1ccc(N2CCN(C(=O)c3nn(C)c4c3CS(=O)(=O)c3ccccc3-4)CC2C)cc1 (stereo not given) 4.12%
O=C(CC1N=C2c3ccccc3N=C(SCc3ccccc3Cl)N2C1=O)NC1CCCCC1 (stereo not given) 0.0972%
COc1ccc(Cl)cc1-n1c(CCC(=O)O)ccc1-c1ccc(C)cc1 -0.474%
Cc1cc(=O)[nH]c(SCC(=O)N2CCN(c3ccccc3)CC2)n1 3.18%
COc1ccc(-c2nc3ccc(C(=O)NCc4ccc(C)cc4)cc3nc2-c2ccc(OC)cc2)cc1 5.7%
CC1CCN(S(=O)(=O)c2ccc3c(c2)N(CC(=O)Nc2ccc(F)c(Cl)c2)C(=O)CO3)CC1 -16.8%
